In PubChem BioAssay AID1671193 (National Center for Advancing Translational Sciences (NCATS), 2021):
Hit rate of the full screen: of about 150,000 compounds, about 180 (0.12%) were called active. The shares of active, inactive and inconclusive entries below differ from those in the screen. The call rests on the fitted dose curve; in most records, active means well fitted cell-killing curve with a large enough effect; inconclusive means small, poorly fitted or top-dose-only effect, or effect the other way; inactive means flat fitted curve, though single readings scatter. Where the call is inconclusive, the potency comes from a doubtful curve fit.
Potency means the concentration at half of the fitted maximal effect; tags describe the fitted curve by direction and shape.

Experiment: GF-AFC viability counterscreen for inhibitors of alpha-synuclein gene (SNCA) expression; further: nearly all actives have a fitted effect of over 30% in size
Settings: HEK-293-SNCA-luc viability, GF-AFC fluorescence, 24 h; series mostly up to 57.1 µM
Outline: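 Cytotoxicity counterscreen: after 24 h compound treatment of genome-edited SNCA-luciferase HEK-293 cells, live-cell protease substrate GF-AFC read by fluorescence after 30 min; activity scaled between DMSO (0%) and medium-only (-100%), curves Hill-fitted.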
For `COc1cc2nc(Cl)nc(N)c2cc1OC`, the Potency was “inactive”.
In the case of `Cc1ccc(C(=O)N2CCc3onc(-c4cccc5ccccc45)c3C2)cc1`, the Potency is reported as inconclusive: 28.2 µM [cytotoxic, single point].
With `CCN(CCCNC(=O)c1cc2cc3ccc(OC)cc3nc2s1)c1ccccc1` the Potency was inconclusive: 39.8 µM [cytotoxic, single point].
In the case of `COc1ccc(-c2nc3cnc(N4CCOCC4)nc3n(Cc3cccc(OC)c3)c2=O)cc1`, the Potency is reported as inconclusive: 39.8 µM [rising, single point].
In the case of `Cc1ccc(Cl)cc1N1CCN(C(=O)c2ccc(C)c(-n3c(C)nc4cccnc43)c2)CC1`, the Potency is reported as inconclusive: 17.8 µM [cytotoxic, single point].
In the case of `COc1ccc(-c2oc3c(CC=C(C)C)c(OC4O[C@H](CO)[C@@H](O)[C@H](O)[C@@H]4O)cc(O)c3c(=O)c2OC2O[C@@H](C)[C@H](O)[C@@H](O)[C@@H]2O)cc1` (stereo partly drawn), the Potency is reported as inconclusive: 27.1 µM [cytotoxic, partial curve].
For `CC1=C[C@@H](CNC(C)C)[C@H](C(C)C)C[C@H]1Cc1nnc(-c2ccc([N+](=O)[O-])cc2)o1`, the Potency was inconclusive: 35.5 µM [cytotoxic, single point].
With `Cc1cc(C)cc(-c2ccc(CN3CCCC(c4nc5ccc(F)cc5c(=O)[nH]4)C3)cc2)c1` (stereo not drawn) the Potency was “inactive”.
With `CCCCc1ncc(-c2c(-c3ccccc3)ncn2CCC2CCCN2C)[nH]1` (stereo not drawn) the Potency was inconclusive: 28.2 µM [cytotoxic, single point].
With `CC1Oc2ccc(NC(=O)COc3ccccc3)cc2CN(Cc2ccccc2Cl)C1=O` (stereo not drawn) the Potency was inconclusive: 39.8 µM [cytotoxic, single point].
With `CCC1Oc2ccc(NC(=O)c3ccccc3F)cc2CN(CCc2ccc(OC)c(OC)c2)C1=O` (stereo not drawn) the Potency was “inactive”.
With `O=C(Nc1ccc(F)cc1F)c1ccc(-n2cnnc2)cc1` the Potency was “inactive”.
With `COc1ccc(-c2cc(C(F)(F)F)nc(SCCC(=O)Nc3c(C)cccc3C)n2)cc1` the Potency was inconclusive: 0.794 µM [rising, partial curve, poor fit].
With `COc1cccc(-c2ccc3c(N)c(C(=O)Nc4ccc(C)c(F)c4)sc3n2)c1` the Potency was inconclusive: 12.6 µM [rising, partial curve, poor fit].
For `c1csc(-c2ccnc(N[C@H]3CO[C@H]4[C@@H]3OC[C@@H]4NCC3CCCCC3)n2)c1`, the Potency was inconclusive: 31.6 µM [cytotoxic, partial curve, poor fit].
With `Cc1cccc(CS(=O)(=O)c2ncc(Cl)c(C(=O)NCc3ccccc3)n2)c1` the Potency was inconclusive: 25.1 µM [cytotoxic, single point].
In the case of `Cc1cc(N=Nc2ccc(S(=O)(=O)Nc3ccccn3)cc2)c(N)cc1O`, the Potency is reported as inconclusive: 15 µM [cytotoxic, partial curve].
In the case of `Cc1n[nH]c(C)c1C(N)C(=O)NCc1cc(C(F)(F)F)ccc1F` (stereo not drawn), the Potency is reported as “inactive”.
In the case of `O=C(Nc1cccc(F)c1)N1CCc2c(c3ccccc3n2CC2CC2)C1`, the Potency is reported as inconclusive: 6.31 µM [cytotoxic, single point].
For `COc1cccc(CN2C[C@@H](CO)[C@H](NC(=O)c3ccccc3)C2)c1`, the Potency was “inactive”.
With `CC(=O)N1CCC(c2nnc3n2C(C(=O)NCC2CCCCC2)CC3)CC1` (stereo not drawn) the Potency was “inactive”.
With `O=C(c1ccc(Cl)cc1)N1CCC2(CC1)C(=O)NCN2Cc1ccc(Cl)cc1` the Potency was “inactive”.
In the case of `CC1=C[C@@H](CNC(=O)NC(C)C)[C@H](C(C)C)C[C@H]1Cc1nnc(-c2ccncc2)o1`, the Potency is reported as inconclusive: 25.1 µM [cytotoxic, partial curve, poor fit].
For `CC(C)c1ccc(OCc2nnc(C(=O)N3CCC[C@@H]3C)n2-c2cccnc2)cc1`, the Potency was “inactive”.
For `COc1ccc2c(c1OC)C(=O)OC2[C@H]1c2c(cc3c(c2OC)OCO3)CCN1C` (stereo partly drawn), the Potency was inconclusive: 8.57 µM [cytotoxic, full curve, poor fit].
With `COc1ccc(CN2Cc3[nH]cnc3C[C@H]2C(=O)NCc2ccc(C#N)cc2)c2ccccc12` the Potency was “inactive”.
In the case of `CCn1cc(-c2ccc(C)cc2)cc1C(=O)N1CCCN(C)CC1`, the Potency is reported as “inactive”.
In the case of `CC(C)CNC(=O)c1coc(COc2ccc3c(c2)C(c2cccc(F)c2)N(C(=O)C2CC2)CC3)n1` (stereo not drawn), the Potency is reported as inconclusive: 11.2 µM [cytotoxic, partial curve, poor fit].
For `CCCn1cc(S(=O)(=O)c2ccc(CC)cc2)c(=O)c2ccccc21`, the Potency was inconclusive: 17.8 µM [rising, partial curve, poor fit].
With `O=C(NC1CCNCC1)c1[nH]ncc1NC(=O)c1c(Cl)cccc1Cl` the Potency was inconclusive: 3.41 µM [cytotoxic, full curve].
In the case of `Cc1cccc(C(=O)Nc2ccccc2SCc2cc(=O)c3cccc(C)c3[nH]2)c1`, the Potency is reported as inconclusive: 10 µM [cytotoxic, partial curve, poor fit].
In the case of `CCCS(=O)(=O)N1CC[C@@H]2C(=O)NCCCCCCN(Cc3ccncc3)[C@@H]2C1`, the Potency is reported as “inactive”.
For `Cc1nc(NCCN2CCOC2=O)c2sccc2n1`, the Potency was “inactive”.
With `Cc1occc1C(=O)N1CCC2(CCCN(Cc3cccnc3)C2=O)C1` (stereo not drawn) the Potency was “inactive”.
In the case of `Cc1cccc(-c2nc(SCC(=O)Nc3ccc4c(c3)OCCO4)c(-c3ccccc3)[nH]2)c1`, the Potency is reported as inconclusive: 20 µM [cytotoxic, partial curve, poor fit].
With `OC[C@@H]1O[C@H](CNC2CCOCC2)[C@H](N2CCN(c3ccccn3)CC2)[C@@H]1O` the Potency was “inactive”.
For `CN1CCCN(C(=O)C2CCCC2)c2ccccc21`, the Potency was “inactive”.
For `CCCn1c(=O)c2sccc2n2c(CCCC(=O)Nc3cccc(CC)c3)nnc12`, the Potency was inconclusive: 7.94 µM [cytotoxic, partial curve].
With `COc1ccc(CNC(=O)c2cc3c(N4CCCC4)nc(C)cn3n2)cc1` the Potency was “inactive”.
In the case of `O=C(NC1CCCC1)N1CCCC(C(=O)N2CCCC2c2nc3ccncc3[nH]2)C1` (stereo not drawn), the Potency is reported as “inactive”.
In the case of `O=C(c1nc(-c2ccc(F)cc2)c2cnccn12)N1CCOCC1`, the Potency is reported as “inactive”.
For `O=C1CC(c2ccc(Cl)cc2)Sc2nc(-c3ccc(F)cc3)nn21` (stereo not drawn), the Potency was inconclusive: 35.5 µM [cytotoxic, single point].
In the case of `COc1ccc2c(c1)c1c(c(=O)n(-c3ccccc3C)c(=O)n1CC(=O)Nc1c(C)cccc1C)n2C`, the Potency is reported as inconclusive: 5.62 µM [cytotoxic, single point].
